Data: publication PMC6212790
This is one part of the list. At the low end of the ranking, values are background and their order means little.

Molecular target: T1, GST-Rok-C97-191 (UniProt O34857)
T1 sequence: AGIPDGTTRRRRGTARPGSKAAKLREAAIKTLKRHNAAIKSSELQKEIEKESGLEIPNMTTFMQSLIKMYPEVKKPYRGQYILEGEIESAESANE
Assay: protein binding microarray;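 further: rank score from −0.5 (least bound) to 0.5 (best bound)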
Conditions: Rok is a gene silencer of Bacillus subtilis; high values mean tight binding; most listed sequences are background and not binding sites; double strand, one strand shown

Sequence | binding signal [E-score]
ACGCAAAG | -0.12
AAATGTTA | 0.091
CCGACAGC | -0.206
CTTCCACC | -0.294
ATCTTGTC | 0.14
GACCCCGC | -0.24
CGTACACA | 0.112
AAAGAAGC | -0.118
CTGGGCTA | -0.112
AGTAGCCA | -0.0763
CCTATCCA | -0.0657
CAACATGA | -0.049
AGCTGCGA | -0.0575
GGGGAGAC | -0.222
CTGACAGA | 0.0178
ATATAATC | 0.201
AACTTGCT | 0.0697
AGGGTAGC | -0.0772
ACGGCTAT | 0.0653
ATAAGGGA | 0.0164
CTGTAGAC | 0.031
ATGGAGCC | -0.318
CAGTCTCA | -0.0929
GACAACCC | -0.277

Sequence | binding signal [E-score]
AAGTGCAG | -0.0846
GGTAGAAC | 0.4
GCGACTAA | -0.148
CCAAGCTC | -0.212
AAGTCAGG | -0.0615
CCTCCTAG | -0.0673
TATGAGCA | 0.0159
CTTGTCAC | -0.0553
AGTGATAT | 0.267
CGAAGTGA | -0.0056
AATAGCCT | -0.0495
ACACGTGG | -0.00456
TGTGTCAA | -0.222
AGTCGATG | -0.141
CAGCTATC | 0.156
CGTAAGAA | 0.0624
CCTGTATC | -0.00872
AACACAGT | 0.0134
TAATGATA | 0.184
ACATCCTA | 0.134
AATACGTG | 0.145
TGGGTGAA | 0.135
GCGATAAA | 0.0616
CAGCCTGG | -0.2

Sequence | binding signal [E-score]
AGCTAAAA | 0.208
CCGTTGAA | -0.0578
CGAATGCA | -0.0901
TGTAGACA | 0.0255
GTGCAGTA | 0.196
CCATTGGC | -0.0209
CGCGGATC | -0.0348
AACCCATG | 0.192
CTCAGTTA | 0.131
ACGCTGTC | -0.0765
CGTCTCCA | -0.152
CCGCCAAG | -0.312
ACCATACG | 0.129
CCGGACAC | -0.000842
GAAGGCAA | -0.191
CTAGGTTC | 0.0689
ACCGTGCA | 0.175
CCGTTGCC | -0.227
AGAAAGCA | -0.01
GCCGTTTA | 0.00806
GAATTGAC | 0.0102
CGACCAAC | -0.152
AAAGCTCC | -0.074
GTAATAGA | 0.284

Sequence | binding signal [E-score]
GGTACAAC | 0.0521
CTACGAAA | 0.114
GTCTAGTA | 0.154
GACAGAAC | -0.0485
AGTTATTG | 0.132
CCTCATAA | -0.0664
CCCTATGA | -0.0838
CCGAGTGA | -0.218
CTGCGAAA | -0.215
ACTTTACT | 0.0715
CTAGCGCC | -0.119
CGGTCTAA | -0.0401
AGCGTGCG | -0.222
GAGCTCGA | 0.0407
CCTTACCC | -0.0838
AGACAAAG | -0.0928
CGGTAACC | -0.0179
AGTTTAAA | 0.245
ATCGATCG | 0.031
ATCTCACG | -0.0602
AATCATGC | -0.146
CCCTAGAA | 0.122
